Test results reported in PubChem BioAssay AID1345083 (National Center for Advancing Translational Sciences (NCATS), 2018).
Hit rate of the full screen: of about 94,000 compounds, about 6,200 (6.6%) were called active. The inconclusive results got no clear call from the source; some entries with a clear call stand among them for comparison. Calls follow the shape of the dose curve; as a rule, active = well fitted inhibition curve with a large enough effect; inconclusive = small, poorly fitted or top-dose-only effect; inactive = flat fitted curve, though single readings scatter. Potencies beside an inconclusive call are fits to weak or partial responses and may not hold up.

assay: Cytotoxic Profiling in HEK 293 Cell Line of Diverse Libraries Using Quantitative High-Throughput Screening; details: HEK 293 viability, ATP luminescence (CellTiter-Glo), 48-72 h; activity change, negative = cytotoxicity: at 115 µM (top of the series) unless noted; series mostly up to 115 µM; also: nearly all actives have a fitted effect of over 60% in size
In short: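 qHTS cytotoxicity; HEK 293, 250 cells/well; compound pinned; 48 or 72 hr, 37 degree Celsius, 5% CO2, 95% humidity; CellTiter-Glo, 10 min RT; luminescence (ATP).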
% is scaled to controls: 0 for no effect and ±100 for the full control effect; potency is read from the fitted curve at half-maximal effect; tags tell the direction and shape of the fitted curve.

SMILES | activity change, negative = cytotoxicity | Potency | outcome
Cn1ccnc1C(=O)N1CCc2nn(C)c(=O)n2CC1 | inactive: -0.343% |  | 
Cc1ccc(CC(=O)N2CCC(n3cc(-c4nc(C)no4)nn3)CC2)cc1 | inactive: -14.2% |  | 
O=C(c1ccccc1F)N1CCn2c(nn(-c3ccc(Cl)cc3)c2=O)C1 |  | inconclusive: 100 µM [inhibitor, partial curve, poor fit] | 
COc1cccc(-c2cccc(C(=O)N3CCN(C(=O)c4ccc(Cl)nc4)CC3)c2)c1 |  | inconclusive: 89.1 µM [inhibitor, single point] | 
O=C(CC1CCCCC1)N1CCC(n2cc(-c3nc(-c4ccccc4)no3)nn2)CC1 |  | active: 28.2 µM | 
CCCNC(=O)O[C@@H]1CC[C@]2(C)C(CC[C@@H](O)[C@H]2CC(=O)NCc2ccc(F)cc2)[C@]1(C)CO (stereo partly drawn) |  | inconclusive: 79.4 µM [inhibitor, partial curve] | 
N#Cc1cccc(-c2c(C(=O)NCc3cccc(Cl)c3)nc3sccn23)c1 |  | inconclusive: 79.4 µM [inhibitor, partial curve] | 
CN(C)CCNC(=O)c1nc2nc(-c3ccccc3)c(-c3ccncc3)cc2n1C |  | inconclusive: 126 µM [inhibitor, single point] | 
COCCNC(=O)[C@H]1C[C@H](Oc2ccccc2)CN1Cc1cccc(F)c1 |  | inconclusive: 39.8 µM [inhibitor, partial curve] | 
CC(=O)N1CCC(C2CCN(C(=O)C3CNC3)C2)CC1 (stereo not drawn) |  |  | inactive
Cc1ccccc1CN1Cc2nc(-c3ccc4c(c3)OCO4)ccc2OCC1=O |  | active: 35.5 µM | 
Cc1ccc(CNC(=O)Cn2c(=O)c(-c3noc(C)n3)c3n(c2=O)CCCC3)cc1 | inactive: -5.1% |  | 
COc1ccccc1CN[C@H]1Cc2ccc(cc2)Nc2cc(ccc2OC)C[C@H](C(=O)NCc2ccccc2)N(C)C1=O |  | active: 39.8 µM | 
O=C(C1CCC(O)CC1)N1CCCC(CCc2ccccc2C(F)(F)F)C1 (stereo not drawn) |  | inconclusive: 50.1 µM [inhibitor, partial curve, poor fit] | 
CNC(=O)c1cc(C)nc2onc(C3CCCN(C(=O)c4ccc(OC)cc4)C3)c12 (stereo not drawn) | inactive: -0.161% |  | 
O=C(Nc1ccc(F)cc1)C1CC(=O)N(c2n[nH]c3cc(Br)ccc23)C1 (stereo not drawn) | inactive: -1.31% |  | 
CCN1CCN(C(=O)c2ccc3oc(-c4cccnc4)nc3c2)CC1 |  |  | inactive
O=C1N(C2CCN(Cc3ccc(C(F)(F)F)cc3)CC2)Cc2cccn21 |  | inconclusive: 89.1 µM [inhibitor, partial curve, poor fit] | 
CN(C)c1ncc2c(n1)C(C)(C(=O)NCc1cccc(Cl)c1)CCC2 (stereo not drawn) |  | active: 100 µM | 
COc1ccc(CN2C[C@H](COCc3ccccc3)Oc3ccncc3[S+]2(=O)[O-])cc1 |  | inconclusive: 35.5 µM [inhibitor, partial curve, poor fit] | 
CN1C[C@@H](NC(=O)Nc2ccccc2)C[C@H]1c1nc(-c2ccccc2)no1 |  | inconclusive: 89.1 µM [inhibitor, partial curve] | 
COc1ccc(C(=O)N2CCCN(c3cc(-c4ccc(C)c(C)c4)[nH]n3)CC2)c(OC)n1 |  | inconclusive: 44.7 µM [inhibitor, partial curve, poor fit] | 
CCOc1cccc(CN2CCCC(COc3ccccc3C(=O)N3CCCCC3)C2)c1 (stereo not drawn) |  | inconclusive: 50.1 µM [inhibitor, partial curve, poor fit] | 

SMILES | activity change, negative = cytotoxicity | Potency | outcome
Cc1cc(C)cc(NC(=O)N2CCCC(c3noc(COc4ccccc4F)n3)C2)c1 (stereo not drawn) |  | inconclusive: 79.4 µM [inhibitor, single point] | 
COc1ccc(CN2C(=O)CO[C@H]3CN(C4CCOCC4)C[C@H]32)cc1 | inactive: -2.3% [at 172 µM] |  | 
O=C(CCC1CCN(S(=O)(=O)c2ccccc2)CC1)NCC1CCCCC1 |  | inconclusive: 17.8 µM [inhibitor, full curve, poor fit] | 
COc1ccc(CC(=O)N[C@H]2C[C@@H](c3nc(-c4ccc5ccccc5c4)no3)N(C)C2)cc1 | inactive: -12.8% |  | 
CCc1ccccc1CN1CCCC12Cc1ccccc1CNC2=O (stereo not drawn) |  | active: 79.4 µM | 
COCCO[C@H]1C(=O)N(C2CCN(S(=O)(=O)c3cccnc3)CC2)[C@H]1c1ccncc1 | inactive: -9.06% |  | 
Cc1cccc(-c2ccc3c(c2)C(=O)N2CC[C@H](NS(=O)(=O)c4cccs4)[C@H]2C(=O)N3)c1C |  | inconclusive: 50.1 µM [inhibitor, partial curve, poor fit] | 
Cc1ccc(-c2cn3c(n2)CO[C@@H](CNCc2ccc(-c4ccccn4)cc2)C3)cc1 |  | active: 35.5 µM | 
COc1ccc(NC(=O)c2ccc3c(c2)OCCN(CCC(F)(F)F)C3)cn1 |  | inconclusive: 63.1 µM [inhibitor, full curve] | 
O=C(C1CCCC1)N1CC2(CCN(Cc3cccnc3)C2)Cc2ccccc21 (stereo not drawn) |  | active: 44.7 µM | 
COc1ccc(O[C@H]2COCCN(S(=O)(=O)c3ccc(OC)cc3)C2)cc1 |  | inconclusive: 100 µM [inhibitor, partial curve] | 
O=C(NCc1ccccn1)c1nc2sccn2c1-c1cccnc1 |  |  | inactive [at 172 µM]
O=C(C1CCCN1C(=O)C1CCCC1)N1CCC(N2CCOCC2=O)CC1 (stereo not drawn) | inactive: 3.89% |  | 
Cn1nccc1C(=O)NC1CCCN(c2cc(-c3ccc(Cl)cc3)[nH]n2)C1 (stereo not drawn) |  | inconclusive: 56.2 µM [inhibitor, partial curve, poor fit] | 
O=c1n(CC2CC2)nc2n1CCN(S(=O)(=O)c1ccccc1C(F)(F)F)C2 |  | inconclusive: 89.1 µM [inhibitor, partial curve, poor fit] | 
Cn1ccc2cc(-c3csc(CN4CC(C)(NC(=O)C5CC5)C4)n3)ccc21 |  | inconclusive: 79.4 µM [inhibitor, partial curve, poor fit] | 
CCOCCCNC(=O)c1cccc(-c2ccc(OC)nn2)c1 | inactive: -19.4% [at 172 µM] |  | 
CCOC(=O)[C@@H]1CN(C(=O)C2CCCC2)[C@H]2c3cccc(C)c3O[C@@H]12 |  | inconclusive: 31.6 µM [inhibitor, partial curve] | 
O=C(NC1CCCCCC1)C1CCN(c2cc(C(F)(F)F)ncn2)CC1 | inactive: -31.1% |  | 
COc1ccc(Nc2ccnc(N3CCC(C(=O)NC4CCCC4)CC3)n2)cc1 |  | inconclusive: 35.5 µM [inhibitor, partial curve, poor fit] | 
CS(=O)(=O)c1cnc(NCCCn2cccn2)nc1C1CCCNC1 (stereo not drawn) | inactive: 1.62% |  | 
O=C(Nc1cnc(-c2ccc(Cl)cc2)nc1)c1cccc(F)c1 |  | inconclusive: 89.1 µM [inhibitor, single point] | 
COc1ccc(N2CC(C(=O)N3CCC(C(=O)NCCCc4ccccc4)C3)NC2=O)cc1 (stereo not drawn) |  | inactive | 

SMILES | activity change, negative = cytotoxicity | Potency | outcome
CCOc1ccc(CCNC(=O)Cn2cccc2-c2nc(-c3ccccc3)no2)cc1OCC |  | inconclusive: 39.8 µM [inhibitor, partial curve, poor fit] | 
CCc1ccccc1NC(=O)N1CCC(Oc2ncccc2NC)C1 (stereo not drawn) | inactive: -4.24% |  | 
CN1CC(=O)N(C2CCCNCC2)Cc2c(NC3CCC3)ncnc21 (stereo not drawn) | inactive: -4.72% |  | 
Cc1ccc(CN2CCC3(CCCO3)CCC2=O)c2ccccc12 (stereo not drawn) |  | inconclusive: 20 µM [inhibitor, full curve, poor fit] | 
O=C1[C@H]2CN(Cc3cccc(Br)c3)C[C@H]2C(=O)N1Cc1ccc2c(c1)OCO2 |  | inconclusive: 56.2 µM [inhibitor, partial curve, poor fit] | 
C=CCCOC(=O)N1CCC(=O)N(CC)C[C@H]2COc3cc(OC)ccc3[C@H]21 | inactive: 4.99% |  | 
CC(C)c1nc2c(c(-c3ccc(O)cc3)n1)CCN(Cc1ccccc1)CC2 |  | inconclusive: 31.6 µM [inhibitor, full curve, poor fit] | 
COc1ccc(-c2noc(CC3CCN(C(=O)C4CC4)CC3)n2)cc1 |  | inconclusive: 50.1 µM [inhibitor, partial curve, poor fit] | 
O=C(NCC1CC1)c1cc(C2CC2)nc2onc(C3CCCN3)c12 (stereo not drawn) | inactive: -3.26% |  | 
Cn1ccc2c(C(=O)NCc3cccnc3)nc(-c3cnn(Cc4ccccc4)c3)cc21 |  | active: 63.1 µM | 
CC1=C[C@@H](CNCc2ccc(C#N)cc2)[C@H](C(C)C)C[C@H]1Cc1nnc(C(C)(C)C)o1 |  | inconclusive: 63.1 µM [inhibitor, partial curve, poor fit] | 
O[C@H]1[C@H](NCc2ccccc2)[C@H]2CO[C@H](O2)[C@@H]1N1CCC(Cc2ccccc2)CC1 |  | inconclusive: 79.4 µM [inhibitor, partial curve, poor fit] | 
CC(C)c1nc2c(c(-c3ccc(Cl)cc3)n1)CN(C(=O)c1cccc(Cl)c1)CC2 |  | inconclusive: 50.1 µM [inhibitor, partial curve, poor fit] | 
COCCCNC(=O)c1cnc2c(c1)N(C(=O)Cc1cn(C)c3ccccc13)CCC2 |  | inconclusive: 56.2 µM [inhibitor, full curve] | 
CCc1cccc(NC(=O)CN2CC3CC(C2)[C@H]2CCCC(=O)N2C3)c1 (stereo partly drawn) | inactive: -29% |  | 
COCCCNC(=O)CC1=C2CCCCC2N(Cc2ccc(F)cc2)C1=O (stereo not drawn) | inactive: 1.46% |  | 
Cc1ccn2c(C(=O)N[C@H](c3cnn(C)c3)C3CC(O)C3)nnc2n1 (stereo partly drawn) | inactive: -14.8% |  | 
O=C(c1ccc(Cl)cc1)N1CC2(CCN(C3CCCCC3)C2)Cc2ccccc21 (stereo not drawn) |  | inconclusive: 56.2 µM [inhibitor, partial curve, poor fit] | 
Cc1cnc(C2CC2)n1C1CCN(C(=O)Nc2ccccc2F)CC1 | inactive: -13% |  | 
CN1C[C@H](C(=O)NCc2ccncc2)C[C@H]1c1cccc(C(F)(F)F)c1 |  | inconclusive: 100 µM [inhibitor, partial curve, poor fit] | 
CC(=O)Nc1cccc(-c2n[nH]c3c2CC(=O)N(Cc2ccccc2)C3)c1 |  | active: 100 µM | 
O=C(CC1CCCN(c2cnn(CC3CC3)c(=O)c2)C1)NCc1cccs1 (stereo not drawn) |  | inconclusive: 50.1 µM [inhibitor, partial curve, poor fit] | 
